The list shows a part of the results.
What follows are sequences tested on PfSIP2 AP2 domain 1 (GST-tagged) (assay: gcPBM binding intensity (ln(normalized median fluorescence intensity)); higher = stronger DNA binding).
Summary of the method: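 Binding intensity is defined as the maximum Masliner-normalised natural-log median intensity across replicate spots for either probe orientation. It was measured on an Agilent 4 × 180k array of primer-extended double-stranded 36-bp intergenic genomic probes and negative controls, to which GST-tagged P. falciparum DNA-binding domains made in E. coli were applied for 1 h in 1× PBS with 1% milk, 0.2 mg/ml BSA, 0.5% salmon testes DNA and 0.03% Triton X-100. Detection was by Alexa488 anti-GST antibody and scanning at 488 nm.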

Compared with “TATTAATTAAACCATACACACATAATTTTTTTATAA [CACACA_site843]”, “GTTAATATTTACTACACACACTTAAAATATGTATAT [CACACA_site4194]” is higher in “gcPBM binding intensity (ln)” value: 6.92 for the first, 7.09 for the second.

Going from “TTTTCATTTTTCTTTACACACATATATTTATTTATA [CACACA_site7119]” to “ACCCATGATTGTTACAGTACTCTACTTTCTAATATA [XGTACX_site98]”, the “gcPBM binding intensity (ln)” value rises from 7.24 to 7.44.

First: AAACTGTCGCTCATAAAGAAGAATGAAATACATTAA [TGCATGCA_negctrl_site60]
Second: ATATATGCATATTATACACACATATGTATATACATT [CACACA_site965]
The “gcPBM binding intensity (ln)” value of the first is lower: 7.04 for the first, 7.07 for the second.

First: TTTTCTGTATATTGTGTGCACACAATTAACAAAAAA [GTGCAC_site9817]
Second: AAAAAAAAAAAAAATGCACACAATGGCTAGCTGTAC [CACACA_site2273]
The “gcPBM binding intensity (ln)” value of the first is higher: 9.05 for the first, 7.58 for the second.

Compared with “TGGAGGTCAGTTCACAGTACCCAGGAAATCTACGGA [XGTACX_site1995]”, “CCATAGATATTTTATACACACATATAACATATTAAT [CACACA_site6312]” is higher in “gcPBM binding intensity (ln)” value: 6.56 for the first, 7.01 for the second.

First: ATATTGACAAATATTACACACATATATAAATATGTA [CACACA_site7835]
Second: ATTTATTTTAATATATGTACATATATTTTTTTATTA [XGTACX_site3389]
The “gcPBM binding intensity (ln)” value of the first is lower: 6.92 for the first, 7.02 for the second.

Compared with “ATATAATATTACACAAGTACAAAAATTAATACTAAA [XGTACX_site482]”, “CGTTATTATCCACATACACACAGGAATAAAAAATTA [CACACA_site2883]” is higher in “gcPBM binding intensity (ln)” value: 6.97 for the first, 7.4 for the second.

First: TAGTAATATATATTTTGTACATAAAATAATATATAA [XGTACX_site7971]
Second: ATTTGAAATGCATGAACACACACAGCTATAAATGCA [CACACA_site8229]
The “gcPBM binding intensity (ln)” value of the first is higher: 7 for the first, 6.99 for the second.

First: TATATATGTTAAAACGTGCACATATATATATATATA [GTGCAC_site9589]
Second: ATAAAATATAAAAAAAGTACAAAAAAAAAAAAAAAA [XGTACX_site6657]
The “gcPBM binding intensity (ln)” value of the first is higher: 9.59 for the first, 7.19 for the second.

Compared with “ATATTATATAAATATACACACATTGTTTTATAGCAT [CACACA_site2386]”, “AAAAAAAAATACATATGTACATATACATATATATAT [XGTACX_site2975]” is higher in “gcPBM binding intensity (ln)” value: 7.05 for the first, 8.95 for the second.

Compared with “ATATATTTAATTTATGGTACACATAATTTTTTTAGA [XGTACX_site848]”, “TTAAAAAAAAGACACACACACATACACATATTTATA [CACACA_site7535]” is higher in “gcPBM binding intensity (ln)” value: 7.11 for the first, 7.15 for the second.

Going from “TATATATATATATATACACACATATATATAAATATA [CACACA_site2035]” to “CACAAAAGTAAGCACGCACACACAACCTGAAATAAA [CACACA_site166]”, the “gcPBM binding intensity (ln)” value falls from 9.26 to 7.13.

First: TTAGTCATATATATATGTACACACATATATATATTT [XGTACX_site2948]
Second: AAAAGAAAATAAGAAACACACAAAAATATGTAAAAA [CACACA_site7694]
The “gcPBM binding intensity (ln)” value of the first is higher: 7.04 for the first, 6.64 for the second.

First: ATTTTTATATAATGAACACACATATTATATCATTTA [CACACA_site1572]
Second: AAAATCCACATTTTAGTACACACTTAAAAAATTATT [CACACA_site2955]
The “gcPBM binding intensity (ln)” value of the first is lower: 7.16 for the first, 7.17 for the second.

Going from “GAACATACTCAAATAGCACACACATAAATAAAAATG [CACACA_site9283]” to “TTATATATATATATATGTACGAAAAAGAAAAAAAAG [XGTACX_site6761]”, the “gcPBM binding intensity (ln)” value rises from 7.21 to 7.57.

Compared with “TATATATATATAATATGTACATATAATCAACATTTT [XGTACX_site3915]”, “ATATTATTTTAAAAAAGTACATTTTTAAGAATTCTT [XGTACX_site6630]” is lower in “gcPBM binding intensity (ln)” value: 8.68 for the first, 7.18 for the second.

Going from “AACATATAAATAAACTGTACATATATATATATATAT [XGTACX_site1056]” to “AATATTACGTGTTTGGTATTTTTCGATGTTGGCAGG [XGTACX_negctrl_site59]”, the “gcPBM binding intensity (ln)” value falls from 9.34 to 7.15.

Compared with “TATCATTATGTAGAAACACACATAAGCTTCGGTTCA [CACACA_site2766]”, “GGGGAAAAAAAAAAAGGAAAAAGAAAAAAAAAAAAA [GTGCAC_negctrl_site489]” is higher in “gcPBM binding intensity (ln)” value: 6.72 for the first, 7 for the second.

Going from “ATAAAATTTATATAAGCACACAAATATATATTTATA [CACACA_site9083]” to “AATTGCATAATATATTCACACATTTTTAAGTGATAC [CACACA_site5679]”, the “gcPBM binding intensity (ln)” value falls from 6.95 to 6.85.

Compared with “GTAAAGGCTATATATGTGCACATTTTTTTTTTTTTT [GTGCAC_site9925]”, “TTATGGTTATACATATGTACATATATATATATATAT [XGTACX_site1494]” is higher in “gcPBM binding intensity (ln)” value: 8.47 for the first, 9.68 for the second.

Going from “GTATATATATATATATGTACATATATGTAGATATAT [XGTACX_site5431]” to “ATATGTACGCAAGGTGCACACTGGTGCATTAAAAAA [CACACA_site1801]”, the “gcPBM binding intensity (ln)” value rises from 7.38 to 12.3.

Compared with “TTTTATTTTTTCTCACGTACAAATATATAATTTTTT [XGTACX_site6952]”, “TACATATGGCACATATGTACACACGTATAGATAATA [XGTACX_site4123]” is lower in “gcPBM binding intensity (ln)” value: 7.13 for the first, 7.12 for the second.

Going from “ATGAATATAAAATATACACACTTATATATCGAATGA [CACACA_site6240]” to “AATATATCCTATTCGAACAAAAATACATGCACATAT [CACACA_negctrl_site1058]”, the “gcPBM binding intensity (ln)” value rises from 6.79 to 9.28.

First: TTGTGGATTTTGTGCGCACACACATGCAAAAAGAAA [CACACA_site1147]
Second: TCTCAGTAAATTAAATGTACATAAGGGAGGAACTAT [XGTACX_site8045]
The “gcPBM binding intensity (ln)” value of the first is higher: 9.54 for the first, 7.22 for the second.

Compared with “TAAATATATGCATATACACACAACAAAAAAATATAT [CACACA_site2341]”, “CACAGACATATATATACACACTTTTATTTAAATAAC [CACACA_site4962]” is lower in “gcPBM binding intensity (ln)” value: 7.33 for the first, 7.22 for the second.

Going from “TTTTTGTATCCTTCTTCTTTTTCCAGACTACATTAT [XGTACX_negctrl_site216]” to “AAAAAAAAAATGTGCACACGCGTACACCCAAAAAAA [CACACA_site5149]”, the “gcPBM binding intensity (ln)” value rises from 7.22 to 9.88.

First: TATAAAAATAATATTACACACATGTAAAATGGCTGT [CACACA_site5755]
Second: CATATACTCGGACACACACACACACCGACAAAAAAA [CACACA_site4433]
The “gcPBM binding intensity (ln)” value of the first is lower: 6.81 for the first, 7.48 for the second.

Compared with “TTTATAGTTTTTAATAGTACACATATTTTTAAGTAT [XGTACX_site5498]”, “TTTTGTGGAGGATGGTGTACGGTATTGTATTATTAC [XGTACX_site1942]” is higher in “gcPBM binding intensity (ln)” value: 7.22 for the first, 7.3 for the second.

Reference: the supplement of paper PMC11417369
